“And” between values parts separate entries of the source, which are not always exact repeats. Identical values can stand only once. Out of some 410,000 compounds screened, about 6,400 (1.6%) were called active. This list was built around the results that the source calls inconclusive (neither active nor inactive); the mix of calls is not that of the screen. The call rests on the fitted dose curve; in most records, active means well fitted inhibition curve with a large enough effect; inconclusive means small, poorly fitted or top-dose-only effect; inactive means no such curve, though single readings can be large or run the other way. A potency beside an inconclusive call is a rough fit, not a confirmed value.
Biological target: Glucagon-like peptide 1 receptor (Homo sapiens) (UniProt P43220)
Experiment: qHTS of GLP-1 Receptor Inverse Agonists (Inhibition Mode); further: nearly all actives have a fitted effect of over 55% in size
Conditions: HEK293 GLP-1R CRE-luciferase, luminescence, 24 h, GLP-1R form is constitutively active; series mostly up to 38.3 µM
How it was run: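 Luminescence readout: a drop in cAMP-driven luciferase signal flags inverse agonism at a constitutively active GLP-1R stably expressed in HEK293. Compound exposure lasted 24 hr at 37 deg C, 5% CO2.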
Potency means the concentration at half of the fitted maximal effect; tags describe the fitted curve by direction and shape.

Sequence of UniProt P43220 (P43220 whole entry, looked up): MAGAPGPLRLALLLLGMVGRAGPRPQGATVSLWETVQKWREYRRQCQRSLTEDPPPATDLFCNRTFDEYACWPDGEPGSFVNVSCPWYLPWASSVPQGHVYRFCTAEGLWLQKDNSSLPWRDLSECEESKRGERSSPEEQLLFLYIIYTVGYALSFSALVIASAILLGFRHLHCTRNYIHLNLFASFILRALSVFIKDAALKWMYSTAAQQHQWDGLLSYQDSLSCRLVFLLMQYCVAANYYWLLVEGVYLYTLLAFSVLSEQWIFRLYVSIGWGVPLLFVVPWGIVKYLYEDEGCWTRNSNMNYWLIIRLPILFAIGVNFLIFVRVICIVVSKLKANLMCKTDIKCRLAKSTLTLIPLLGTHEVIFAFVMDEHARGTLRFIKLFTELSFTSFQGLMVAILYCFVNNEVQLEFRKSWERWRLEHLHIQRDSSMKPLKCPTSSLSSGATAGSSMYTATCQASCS

**Q.** Which Potency does the source give for `CC(C)(CO)NC(=O)Nc1ccc(Cl)c(Cl)c1` here?
**A.** Its Potency is inconclusive: 28.2 µM [inhibitor, single point].

**Q.** With `COc1cc(/C=N/Nc2nncn2/N=C/c2ccc(O)c(OC)c2)ccc1O` as the compound, how does the Potency read?
**A.** The Potency was “inactive”.

**Q.** For `C=C(C)c1cccc(C(C)(C)NC(=O)NC2CCN(Cc3ccccc3)CC2)c1`, which Potency is on record?
**A.** The Potency was inconclusive: 22.4 µM [inhibitor, partial curve, poor fit].

**Q.** With `Cc1ccc(S(=O)(=O)N/N=C/c2ccc(OCC(=O)Nc3ccccc3Cl)cc2)cc1` as the compound, how does the Potency read?
**A.** Its Potency is inconclusive: 12.6 µM [inhibitor, partial curve, poor fit].

**Q.** Which Potency does the source give for `CN(C)c1cc(N/N=C/c2ccccc2C(F)(F)F)nc(N(C)C)n1` here?
**A.** Its Potency is inconclusive: 10 µM [inhibitor, partial curve, poor fit].

**Q.** For `COc1ccc(-c2cc(CCCC(=O)N3CCN(c4ccc(OC)cc4)CC3)no2)cc1`, which Potency is on record?
**A.** The Potency was “inactive”.

**Q.** Which Potency does the source give for `COC(=O)[C@]12CCCCC=C1N(Cc1ccc(Cl)cc1Cl)C(=O)[C@H](CC(=O)NCc1ccc(C)o1)C2` here?
**A.** The Potency was inconclusive: 15.8 µM [inhibitor, partial curve, poor fit].

**Q.** Which Potency does the source give for `COc1ccc(Cn2c(CCC(=O)Nc3ccc(C)cc3)nc3cccnc32)cc1` here?
**A.** The Potency was inconclusive: 12.6 µM [inhibitor, partial curve, poor fit] and inconclusive: 10 µM [inhibitor, single point].

**Q.** Which Potency does the source give for `CCN1CC(CNCc2cn(-c3ccc(OC)cc3)nc2-c2ccccc2Cl)CC1=O` (stereo not drawn) here?
**A.** Its Potency is inconclusive: 11.2 µM [inhibitor, partial curve, poor fit].

**Q.** Which Potency does the source give for `COc1ccc(NC(=O)O/N=C/c2c(C)nn(C(C)(C)C)c2C)cc1` here?
**A.** The Potency was inconclusive: 15.8 µM [inhibitor, single point].

**Q.** How did the Potency turn out when `O=C(Oc1ccc(Br)cc1C(=O)/C=C/c1ccccc1F)c1ccco1` was run?
**A.** The Potency was inconclusive: 10 µM [inhibitor, partial curve, poor fit].

**Q.** `O=C(O)C(c1ccccc1)N1C(=O)/C(=C\c2ccc(-c3cccc(Cl)c3)o2)SC1=S` (stereo not drawn) was tested. Which Potency did it give?
**A.** Its Potency is inconclusive: 17.8 µM [inhibitor, single point].

**Q.** `CCN1C(=O)[C@H]2[C@@H](c3ccc(C)cc3)N3C(=O)N(c4ccc(OC)cc4)C(=O)[C@@]3(CC)[C@H]2C1=O` was tested. Which Potency did it give?
**A.** The Potency was “inactive”.

**Q.** How did the Potency turn out when `CCOc1ccccc1NC(=O)N1c2ccccc2Sc2ccccc21` was run?
**A.** Its Potency is inconclusive: 7.94 µM [inhibitor, partial curve, poor fit].

**Q.** With `CC1(Cc2ccccc2OC(F)(F)F)C(=O)Nc2ccc(S(=O)(=O)NC3CCCCC3)cc21` (stereo not drawn) as the compound, how does the Potency read?
**A.** Its Potency is inconclusive: 10 µM [inhibitor, single point].

**Q.** Which Potency does the source give for `COc1ccc(Nc2ncnc3sccc23)c(OC)c1` here?
**A.** The Potency was “inactive”.

**Q.** `CCOc1cc(CNC2CCCC2)cc(Cl)c1OCc1ccc(F)cc1` was tested. Which Potency did it give?
**A.** Its Potency is inconclusive: 10 µM [inhibitor, partial curve, poor fit].

**Q.** Which Potency does the source give for `COc1ccc(Cl)cc1NS(=O)(=O)c1cccc(C(=O)NCC(c2ccco2)N(C)C)c1` (stereo not drawn) here?
**A.** Its Potency is inconclusive: 11.2 µM [inhibitor, single point].

**Q.** For `Cc1cc(C(=O)Cn2nnc3ccccc3c2=O)c(C)n1-c1ccccc1F`, which Potency is on record?
**A.** The Potency was inconclusive: 6.31 µM [inhibitor, full curve, poor fit].

**Q.** `CC1CC(O)(CC(O)(c2ccccc2)c2ccccc2)C(C)CN1C` (stereo not drawn) was tested. Which Potency did it give?
**A.** Its Potency is inconclusive: 8.91 µM [inhibitor, partial curve, poor fit].

**Q.** How did the Potency turn out when `C=CCn1c(O)c(N=NC(=O)CNC(=O)c2ccco2)c2ccccc21` was run?
**A.** The Potency was inconclusive: 2 µM [inhibitor, full curve].

**Q.** With `COc1ccc2cc3cc(C(=O)N4CC(C)CC(C)C4)oc3nc2c1` (stereo not drawn) as the compound, how does the Potency read?
**A.** Its Potency is inconclusive: 6.31 µM [inhibitor, partial curve, poor fit].

**Q.** With `CCc1cc2c(NCc3ccccc3)nc(C)nc2s1` as the compound, how does the Potency read?
**A.** Its Potency is inconclusive: 15.8 µM [inhibitor, partial curve, poor fit].

**Q.** `CCCCN(Cc1ccccc1)c1ncnc2nc[nH]c12` was tested. Which Potency did it give?
**A.** The Potency was inconclusive: 11.2 µM [inhibitor, partial curve, poor fit].

**Q.** For `CC1CCN(C(=O)CN(c2ccc(Cl)c(C(F)(F)F)c2)S(C)(=O)=O)CC1`, which Potency is on record?
**A.** Its Potency is inconclusive: 10 µM [inhibitor, single point].

**Q.** For `CCn1ccc2cc(S(=O)(=O)N3CCC(C(=O)NCc4cccc(Cl)c4)CC3)ccc21`, which Potency is on record?
**A.** The Potency was inconclusive: 20 µM [inhibitor, single point].

**Q.** With `Cc1nnc(SCC(=O)c2c[nH]c3ccccc23)n1C1CC1` as the compound, how does the Potency read?
**A.** Its Potency is inconclusive: 12.6 µM [inhibitor, partial curve, poor fit].

**Q.** Which Potency does the source give for `CC(C)(C)C1CCc2onc(C(=O)Nc3cnn(Cc4ccc(F)cc4)c3)c2C1` (stereo not drawn) here?
**A.** Its Potency is “inactive”.

**Q.** For `Cc1ccc(-n2ncc(C(=O)NCCN3CCCC3)c2C2CCN(C(=O)OC(C)(C)C)CC2)cc1`, which Potency is on record?
**A.** Its Potency is inconclusive: 11.2 µM [inhibitor, single point].

**Q.** How did the Potency turn out when `CC(C)C[C@@H](COCc1cccc(C(F)(F)F)c1)N1CCN(C(=O)c2ccc(C(F)(F)F)cc2)CCC1=O` was run?
**A.** The Potency was inconclusive: 10 µM [inhibitor, partial curve, poor fit].

**Q.** How did the Potency turn out when `CC1CCN(S(=O)(=O)c2ccc3c(c2)CC(C)N3C(=O)C2CCC2)CC1` (stereo not drawn) was run?
**A.** Its Potency is inconclusive: 28.2 µM [inhibitor, single point].

**Q.** With `Cc1cc2nc(N)sc2cc1[N+](=O)[O-]` as the compound, how does the Potency read?
**A.** The Potency was “inactive”.

**Q.** With `Cc1cc(C)n(-c2nc3cc(Cl)ccc3nc2Nc2ccc(C)c(F)c2)n1` as the compound, how does the Potency read?
**A.** Its Potency is “inactive”.

**Q.** For `COC(=O)c1ccc(CN2CCN(CCCc3ccccc3)C(CCO)C2)cc1` (stereo not drawn), which Potency is on record?
**A.** The Potency was inconclusive: 22.4 µM [inhibitor, single point].

**Q.** How did the Potency turn out when `CC(S(=O)(=O)c1ccccc1)S(=O)(=O)c1ccccc1` was run?
**A.** Its Potency is “inactive”.

**Q.** With `O=C(c1cnc(Cl)c(Cl)c1)N1CCN(S(=O)(=O)c2ccc3ccccc3c2)CC1` as the compound, how does the Potency read?
**A.** Its Potency is inconclusive: 12.6 µM [inhibitor, single point].

**Q.** For `COc1ccc(/C=N/NC(=O)c2ccc(COc3cccc4cccnc34)cc2)cc1O`, which Potency is on record?
**A.** Its Potency is inconclusive: 11.2 µM [inhibitor, single point].

**Q.** How did the Potency turn out when `O=C(/C=C/c1ccco1)NC(=S)Nc1ccccc1Br` was run?
**A.** Its Potency is inconclusive: 31.6 µM [inhibitor, single point].

From PubChem BioAssay AID624417 (National Center for Advancing Translational Sciences (NCATS), 2012)
